The full ranking holds about 81,000 sequences; the median of “one-hybrid fitness for binding parS DNA” is about -0.17, and the highest 2% start at about 0.51. The list shows a part of the results.
B1: Caulobacter ParB omega fusion; a variant is named by its letters at X, in order, B8GW30 (parent)
chain: MESVVVGEPGMSEGRRGLGRGLSALLGEVDAAPAQAPGEQLGGSREAPIEILQRNPDQPRRTFREEDLEDLSNSIREKGVLQPILVRPSPDTAGEYQIVAGERAWRAAQRAGLKTVPIMVRELDDLAVLEIGIIENVQRADLNVLEEALSYKVLMEKFERTQENIAQTIGKSXSHVANXMRLLXLPDEVQSYLVSGELTAXHARAIAAAADPVALAKQIIEGGLSVRETEALARKAPNLSAGKSKGGRPPRVKDTDTQALESDLSSVLGLDVSIDHRGSTGTLTITYATLEQLDDLCNRLTRGI

Variants of: B1
Experiment: one-hybrid fitness for binding parS DNA (scaled: cognate 1, non-cognate 0); higher = stronger binding
Details: with parS DNA site
Outline: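 Fitness here means the log change in variant-to-wild-type read ratio between plasmids sequenced before and after selection. That scale was set so cognate equals 1 and non-cognate equals 0. The selection was a bacterial one-hybrid screen of Caulobacter ParB libraries, four specificity codons randomised, in E. coli USO carrying a HIS3 reporter with the site 19 bp from the promoter, grown 48 hours at 37°C on M9-minus-histidine with 0.1 mM IPTG and 5 mM 3-AT.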

Row | Variant | one-hybrid fitness for binding parS DNA
1 | RSNW | 0.218
2 | FNTS | ≤ 0.2
3 | HSLT | ≤ 0.2
4 | RKPF | ≤ 0.2
5 | WNTS | ≤ 0.2
6 | LVYT | ≤ 0.2
7 | QWDN | ≤ 0.2
8 | ARIF | ≤ 0.2
9 | TDSG | ≤ 0.2
10 | DNKC | ≤ 0.2
11 | RQWG | 0.877
12 | DLHD | ≤ 0.2
13 | PHRF | ≤ 0.2
14 | QHSM | ≤ 0.2
15 | ARFF | ≤ 0.2
16 | DWNL | ≤ 0.2
17 | VTFC | ≤ 0.2
18 | VRHR | ≤ 0.2
19 | MFPS | ≤ 0.2
20 | VISF | ≤ 0.2
21 | WRPY | ≤ 0.2
22 | INAC | ≤ 0.2
23 | ILAH | ≤ 0.2
24 | CAHR | ≤ 0.2

Row | Variant | one-hybrid fitness for binding parS DNA
25 | PGWW | ≤ 0.2
26 | FKLE | ≤ 0.2
27 | EIIT | ≤ 0.2
28 | VRQL | ≤ 0.2
29 | FVLH | ≤ 0.2
30 | WRKI | ≤ 0.2
31 | GPRM | ≤ 0.2
32 | IVVY | ≤ 0.2
33 | FQCC | ≤ 0.2
34 | PDAR | ≤ 0.2
35 | DFLF | ≤ 0.2
36 | YWAY | ≤ 0.2
37 | RITK | ≤ 0.2
38 | AMQR | ≤ 0.2
39 | LSGL | ≤ 0.2
40 | CPKT | ≤ 0.2
41 | EGLH | ≤ 0.2
42 | EVVE | 0.204
43 | RWIC | 0.521
44 | NVES | ≤ 0.2
45 | QHGS | ≤ 0.2
46 | DNRG | ≤ 0.2
47 | WPSS | ≤ 0.2
48 | SCRV | ≤ 0.2

Row | Variant | one-hybrid fitness for binding parS DNA
49 | AQRL | ≤ 0.2
50 | LGAN | ≤ 0.2
51 | QFDF | ≤ 0.2
52 | ACVC | ≤ 0.2
53 | QKNL | ≤ 0.2
54 | PTYI | ≤ 0.2
55 | PNYG | ≤ 0.2
56 | RKGF | ≤ 0.2
57 | TGQL | ≤ 0.2
58 | SNRI | ≤ 0.2
59 | PYPV | ≤ 0.2
60 | VARS | ≤ 0.2
61 | YVRC | ≤ 0.2
62 | YWAR | ≤ 0.2
63 | HNRC | ≤ 0.2
64 | AILS | ≤ 0.2
65 | RVNT | 0.899
66 | EGRG | ≤ 0.2
67 | APTC | ≤ 0.2
68 | GIQR | ≤ 0.2
69 | DRMC | ≤ 0.2
70 | EPPI | ≤ 0.2
71 | DFTA | ≤ 0.2
72 | YDHG | ≤ 0.2

Row | Variant | one-hybrid fitness for binding parS DNA
73 | LLVV | ≤ 0.2
74 | RIKW | 0.326
75 | RQEE | ≤ 0.2
76 | AGRS | ≤ 0.2
77 | AMKT | ≤ 0.2
78 | CHTS | ≤ 0.2
79 | INSG | ≤ 0.2
80 | RKFH | 0.211
81 | SVRA | ≤ 0.2
82 | VRRN | ≤ 0.2
83 | SAGM | ≤ 0.2
84 | VLID | ≤ 0.2
85 | AITS | ≤ 0.2
86 | RRDF | ≤ 0.2
87 | TELL | ≤ 0.2
88 | VQAR | ≤ 0.2
89 | RGSC | 0.672
90 | SNDF | ≤ 0.2
91 | ESPR | ≤ 0.2
92 | QYTW | ≤ 0.2
93 | IRYS | ≤ 0.2
94 | YNVW | ≤ 0.2
95 | DTMS | ≤ 0.2
96 | SFMY | ≤ 0.2

Row | Variant | one-hybrid fitness for binding parS DNA
97 | VNQD | ≤ 0.2
98 | YHNG | ≤ 0.2
99 | SLNI | ≤ 0.2
100 | QAHY | ≤ 0.2
101 | THDR | ≤ 0.2
102 | VIEG | ≤ 0.2
103 | GHHR | ≤ 0.2
104 | DKIG | ≤ 0.2
105 | APYS | ≤ 0.2
106 | KRNI | ≤ 0.2
107 | CCPT | ≤ 0.2
108 | RWGR | ≤ 0.2
109 | QSGV | ≤ 0.2
110 | FTVR | ≤ 0.2
111 | TRCL | ≤ 0.2
112 | SYVM | ≤ 0.2
113 | HRWT | ≤ 0.2
114 | GNTM | ≤ 0.2
115 | RVAI | ≤ 0.2
116 | WFQS | ≤ 0.2
117 | RYIA | 0.496
118 | SQSF | ≤ 0.2
119 | DSRH | ≤ 0.2
120 | REFR | ≤ 0.2

Row | Variant | one-hybrid fitness for binding parS DNA
121 | RAPV | ≤ 0.2
122 | HSSN | ≤ 0.2
123 | TQVY | ≤ 0.2
124 | ISSN | ≤ 0.2
125 | QLYS | ≤ 0.2
126 | AVPG | ≤ 0.2
127 | PCFK | ≤ 0.2
128 | RAEH | ≤ 0.2
129 | KSTF | ≤ 0.2
130 | HPMR | ≤ 0.2
131 | ANWN | ≤ 0.2
132 | LLSH | ≤ 0.2
133 | NNMV | ≤ 0.2
134 | KWHR | ≤ 0.2
135 | VAIS | ≤ 0.2
136 | GILV | ≤ 0.2
137 | QMES | ≤ 0.2
138 | QAER | ≤ 0.2
139 | IDHM | ≤ 0.2
140 | VAWQ | ≤ 0.2
141 | WVCG | ≤ 0.2
142 | SYCS | ≤ 0.2
143 | IVPY | ≤ 0.2
144 | FVVC | ≤ 0.2

Row | Variant | one-hybrid fitness for binding parS DNA
145 | QCRE | ≤ 0.2
146 | VWPS | ≤ 0.2
147 | RDHE | ≤ 0.2
148 | CSAG | ≤ 0.2
149 | AKYC | ≤ 0.2
150 | GHSY | ≤ 0.2
151 | VKMS | ≤ 0.2
152 | YFTV | ≤ 0.2
153 | STSH | ≤ 0.2
154 | QTLL | ≤ 0.2
155 | FMEG | 0.235
156 | RRYW | ≤ 0.2
157 | MHST | ≤ 0.2
158 | RFMR | ≤ 0.2
159 | TTYC | ≤ 0.2
160 | YATL | ≤ 0.2
161 | YKLG | ≤ 0.2
162 | RTLM | 0.356
163 | VNSS | ≤ 0.2
164 | CYMS | ≤ 0.2
165 | FRSM | ≤ 0.2
166 | PSGS | ≤ 0.2
167 | VEIY | ≤ 0.2
168 | QPKG | ≤ 0.2

Row | Variant | one-hybrid fitness for binding parS DNA
169 | PASC | ≤ 0.2
170 | VMKI | ≤ 0.2
171 | VHAG | ≤ 0.2
172 | PDAD | ≤ 0.2
173 | HRWS | 0.242
174 | HWTY | ≤ 0.2
175 | FDTV | ≤ 0.2
176 | MPGS | ≤ 0.2
177 | KCRG | ≤ 0.2
178 | VYSC | ≤ 0.2
179 | HNAD | ≤ 0.2
180 | QRKQ | ≤ 0.2
181 | GTLP | ≤ 0.2
182 | NLSV | ≤ 0.2
183 | LVIR | ≤ 0.2
184 | TRTW | ≤ 0.2
185 | QLDN | ≤ 0.2
186 | FNGG | ≤ 0.2
187 | ACCC | ≤ 0.2
188 | NRRY | ≤ 0.2
189 | AVFG | ≤ 0.2
190 | RYRL | ≤ 0.2
191 | LPQS | ≤ 0.2
192 | KVCS | ≤ 0.2

Row | Variant | one-hybrid fitness for binding parS DNA
193 | DRIR | ≤ 0.2
194 | LKSR | ≤ 0.2
195 | DYSS | ≤ 0.2
196 | ETMG | ≤ 0.2
197 | SINC | ≤ 0.2
198 | LAGN | ≤ 0.2
199 | GRVC | ≤ 0.2
200 | SLRR | ≤ 0.2
201 | NRQR | ≤ 0.2
202 | MLLY | ≤ 0.2
203 | GYRC | ≤ 0.2
204 | GARL | ≤ 0.2
205 | AKAY | ≤ 0.2
206 | SQYV | ≤ 0.2
207 | VTSR | ≤ 0.2
208 | RHLR | ≤ 0.2
209 | LRSW | ≤ 0.2
210 | HRVS | ≤ 0.2
211 | MTND | ≤ 0.2
212 | KVPR | ≤ 0.2
213 | FSQR | ≤ 0.2
214 | EGRT | ≤ 0.2
215 | LNQK | ≤ 0.2
216 | HRAA | ≤ 0.2

Row | Variant | one-hybrid fitness for binding parS DNA
217 | WGTW | ≤ 0.2
218 | SYKA | ≤ 0.2
219 | DHWR | ≤ 0.2
220 | SNTG | ≤ 0.2
221 | GQYP | ≤ 0.2
222 | RWTW | ≤ 0.2
223 | LDGG | ≤ 0.2
224 | AGAR | ≤ 0.2
225 | STGC | ≤ 0.2
226 | NAYI | ≤ 0.2
227 | WNNG | ≤ 0.2
228 | KEKR | ≤ 0.2
229 | ILRR | ≤ 0.2
230 | LKAD | ≤ 0.2
231 | VAWT | ≤ 0.2
232 | PLNQ | ≤ 0.2
233 | SALG | ≤ 0.2
234 | TANF | ≤ 0.2
235 | KKKM | ≤ 0.2
236 | TIGF | ≤ 0.2
237 | MRAS | ≤ 0.2
238 | FGCT | ≤ 0.2
239 | TPDS | ≤ 0.2
240 | SVLI | ≤ 0.2

Row | Variant | one-hybrid fitness for binding parS DNA
241 | RKAS | 0.832
242 | ALPF | ≤ 0.2
243 | NYAG | ≤ 0.2
244 | HMFG | ≤ 0.2
245 | FVLQ | ≤ 0.2
246 | QVLM | ≤ 0.2
247 | STAK | ≤ 0.2
248 | GIAS | ≤ 0.2
249 | DWRT | ≤ 0.2
250 | NFIG | ≤ 0.2
251 | ETVY | ≤ 0.2
252 | RLAI | ≤ 0.2
253 | DGLV | ≤ 0.2
254 | GLYM | ≤ 0.2
255 | WSLF | ≤ 0.2
256 | CLHT | ≤ 0.2
257 | RRFY | 0.274
258 | KRPV | ≤ 0.2
259 | CFNT | ≤ 0.2
260 | CQPG | ≤ 0.2
261 | RLEP | ≤ 0.2
262 | SEHV | ≤ 0.2
263 | VWTA | ≤ 0.2
264 | RWFY | ≤ 0.2

Row | Variant | one-hybrid fitness for binding parS DNA
265 | AAVI | ≤ 0.2
266 | YDVS | ≤ 0.2
267 | DKPK | ≤ 0.2
268 | IQYC | ≤ 0.2
269 | WKST | ≤ 0.2
270 | KSYK | ≤ 0.2
271 | YVMG | ≤ 0.2
272 | NESV | ≤ 0.2
273 | VWSA | ≤ 0.2
274 | TIIQ | ≤ 0.2
275 | SQIG | ≤ 0.2
276 | NFEC | ≤ 0.2
277 | GRIY | ≤ 0.2
278 | PMLF | ≤ 0.2
279 | NRPR | ≤ 0.2
280 | AKRP | ≤ 0.2
281 | TSDM | ≤ 0.2
282 | GTNS | ≤ 0.2
283 | RTQQ | ≤ 0.2
284 | GFTS | ≤ 0.2
285 | SQSG | ≤ 0.2
286 | ALNW | ≤ 0.2
287 | WTGG | ≤ 0.2
288 | RYCS | 0.958

Row | Variant | one-hybrid fitness for binding parS DNA
289 | TEFG | ≤ 0.2
290 | APRF | ≤ 0.2
291 | HMTW | ≤ 0.2
292 | QSYE | ≤ 0.2
293 | PTRE | ≤ 0.2
294 | DRST | ≤ 0.2
295 | YRKA | ≤ 0.2
296 | RPLP | ≤ 0.2
297 | TPTV | ≤ 0.2
298 | VTWC | ≤ 0.2
299 | WACN | ≤ 0.2
300 | HVAR | ≤ 0.2
301 | LDFG | ≤ 0.2
302 | SRGS | ≤ 0.2
303 | STET | ≤ 0.2
304 | ARFE | ≤ 0.2
305 | YLCR | ≤ 0.2
306 | HPKG | ≤ 0.2
